Measurements from the supplement of paper PMC9151546.
Repeats are few or missing, and single values can be far off.

Experiments:
CHO-K1 [1] = assay: relative survival (nuclei to bead ratio vs DMSO control) (% of vehicle control); higher = more surviving cells
Protocol: (§1)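 Flow-cytometric in vitro micronucleus assay (Litron MicroFlow) in CHO-K1 cells in 96-well plates, 19 concentrations (4.5-200 µM, n=1 per concentration). Without S9, cells were exposed for 24 h and sampled at 48 h. With Aroclor 1254-induced rat liver S9, cells were exposed for 3-4 h and sampled at 27-28 h. Read-outs are %MN and %hypodiploid nuclei relative to nucleated events, and relative survival as the nuclei-to-bead ratio versus the 1% DMSO vehicle control (x100).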

CHO-K1 [2] = assay: micronucleus frequency (% of nucleated events); higher = more micronuclei (genotoxic)
CHO-K1 [3] = assay: hypodiploid nuclei frequency (% of nucleated events); higher = more hypodiploid events (aneugenic)
Protocol: as §1
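Wherever hypodiploid nuclei frequency (% of nucleated events) is given: hypodiploid nuclei gated on a flow cytometer with 488 nm excitation after SYTOX Green staining, cultures at 37 °C, positive controls vinblastine without S9 and cyclophosphamide with S9.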
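Wherever micronucleus frequency (% of nucleated events) is given: cells lysed with nuclei stained by SYTOX Green, then micronucleus-gated events counted against nucleated events by flow cytometry with 488 nm excitation.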
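Wherever relative survival (nuclei to bead ratio vs DMSO control) is given: Lysed-cell nuclei stained with SYTOX Green and counted against counting beads by flow cytometry at 488 nm excitation, with vinblastine (no S9) and cyclophosphamide (plus S9) as positive controls.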

Cc1cc(Cc2ccc(N)c(C)c2)ccc1N [4,4'-Methylenebis(2-methylaniline)]
Conditions	hypodiploid nuclei frequency, CHO-K1 [3] [%]	micronucleus frequency, CHO-K1 [2] [%]	relative survival, CHO-K1 [1]
concentration: 4.5 (µM), S9 metabolic activation: with S9, exposure time: 3-4 hours	1.4	1.4	94.1
concentration: 4.5 (µM), S9 metabolic activation: without S9, exposure time: 24 hours	0.92	1.4	85.6
concentration: 5.63 (µM), S9 metabolic activation: with S9, exposure time: 3-4 hours	3.28	1.68	73.6
concentration: 5.63 (µM), S9 metabolic activation: without S9, exposure time: 24 hours	1	1.7	101
concentration: 7.04 (µM), S9 metabolic activation: with S9, exposure time: 3-4 hours	2.54	1.28	87.3
concentration: 7.04 (µM), S9 metabolic activation: without S9, exposure time: 24 hours	1.2	1.68	78.6
concentration: 8.8 (µM), S9 metabolic activation: with S9, exposure time: 3-4 hours	3.02	1.56	79.4
concentration: 8.8 (µM), S9 metabolic activation: without S9, exposure time: 24 hours	1.54	1.56	99
concentration: 11 (µM), S9 metabolic activation: with S9, exposure time: 3-4 hours	4.98	1.54	82.3
concentration: 11 (µM), S9 metabolic activation: without S9, exposure time: 24 hours	1.48	1.48	108
concentration: 13.7 (µM), S9 metabolic activation: with S9, exposure time: 3-4 hours	4.88	1.68	85.2
concentration: 13.7 (µM), S9 metabolic activation: without S9, exposure time: 24 hours	1.46	1.96	99.9
concentration: 17.2 (µM), S9 metabolic activation: with S9, exposure time: 3-4 hours	4.72	1.7	104
concentration: 17.2 (µM), S9 metabolic activation: without S9, exposure time: 24 hours	1.3	1.58	118
concentration: 21.5 (µM), S9 metabolic activation: with S9, exposure time: 3-4 hours	4.84	1.7	105
concentration: 21.5 (µM), S9 metabolic activation: without S9, exposure time: 24 hours	1.48	1.38	91
concentration: 26.8 (µM), S9 metabolic activation: with S9, exposure time: 3-4 hours	0.42	1.92	105
concentration: 26.8 (µM), S9 metabolic activation: without S9, exposure time: 24 hours	1.38	1.78	96.6
concentration: 33.6 (µM), S9 metabolic activation: with S9, exposure time: 3-4 hours	0.44	1.5	105
concentration: 33.6 (µM), S9 metabolic activation: without S9, exposure time: 24 hours	1.9	2.32	112
concentration: 41.9 (µM), S9 metabolic activation: with S9, exposure time: 3-4 hours	0.48	1.62	101
concentration: 41.9 (µM), S9 metabolic activation: without S9, exposure time: 24 hours	2.36	2.54	87.1
concentration: 52.4 (µM), S9 metabolic activation: with S9, exposure time: 3-4 hours	0.76	1.32	83.6
concentration: 52.4 (µM), S9 metabolic activation: without S9, exposure time: 24 hours	2.96	2.7	78.6
concentration: 65.5 (µM), S9 metabolic activation: with S9, exposure time: 3-4 hours	0.52	1.3	108
concentration: 65.5 (µM), S9 metabolic activation: without S9, exposure time: 24 hours	3.28	3.1	86.3
concentration: 81.9 (µM), S9 metabolic activation: with S9, exposure time: 3-4 hours	0.54	1.74	101
concentration: 81.9 (µM), S9 metabolic activation: without S9, exposure time: 24 hours	5.28	3.74	73.5
concentration: 102 (µM), S9 metabolic activation: with S9, exposure time: 3-4 hours	0.64	1.4	85.9
concentration: 102 (µM), S9 metabolic activation: without S9, exposure time: 24 hours	6.22	4.2	66.5
concentration: 128 (µM), S9 metabolic activation: with S9, exposure time: 3-4 hours	1.12	1.5	100
concentration: 128 (µM), S9 metabolic activation: without S9, exposure time: 24 hours	8.78	6.4	58.5
concentration: 160 (µM), S9 metabolic activation: with S9, exposure time: 3-4 hours	0.74	1.34	102
concentration: 160 (µM), S9 metabolic activation: without S9, exposure time: 24 hours	14.3	10.7	52.1
concentration: 200 (µM), S9 metabolic activation: with S9, exposure time: 3-4 hours	0.74	1.46	95.5
concentration: 200 (µM), S9 metabolic activation: without S9, exposure time: 24 hours	24	17.3	40

CN(C)c1ccc(Cc2ccc(N(C)C)cc2)cc1 [4,4'-Methylenebis(N,N-dimethylaniline)]
Conditions	hypodiploid nuclei frequency, CHO-K1 [3] [%]	micronucleus frequency, CHO-K1 [2] [%]	relative survival, CHO-K1 [1]
concentration: 4.5 (µM), S9 metabolic activation: with S9, exposure time: 3-4 hours	0.2	0.66	115
concentration: 4.5 (µM), S9 metabolic activation: without S9, exposure time: 24 hours	0.58	1.12	112
concentration: 5.63 (µM), S9 metabolic activation: with S9, exposure time: 3-4 hours	0.08	1.08	83.4
concentration: 5.63 (µM), S9 metabolic activation: without S9, exposure time: 24 hours	0.34	1.1	107
concentration: 7.04 (µM), S9 metabolic activation: with S9, exposure time: 3-4 hours	0.28	0.86	85.4
concentration: 7.04 (µM), S9 metabolic activation: without S9, exposure time: 24 hours	0.5	0.94	113
concentration: 8.8 (µM), S9 metabolic activation: with S9, exposure time: 3-4 hours	0.18	0.76	88.4
concentration: 8.8 (µM), S9 metabolic activation: without S9, exposure time: 24 hours	0.52	1.16	98
concentration: 11 (µM), S9 metabolic activation: with S9, exposure time: 3-4 hours	0.27	0.79	80.7
concentration: 11 (µM), S9 metabolic activation: without S9, exposure time: 24 hours	0.52	1.24	117
concentration: 13.7 (µM), S9 metabolic activation: with S9, exposure time: 3-4 hours	0.34	0.9	78.8
concentration: 13.7 (µM), S9 metabolic activation: without S9, exposure time: 24 hours	0.5	1.16	122
concentration: 17.2 (µM), S9 metabolic activation: with S9, exposure time: 3-4 hours	0.28	1.18	83.2
concentration: 17.2 (µM), S9 metabolic activation: without S9, exposure time: 24 hours	0.7	1.26	116
concentration: 21.5 (µM), S9 metabolic activation: with S9, exposure time: 3-4 hours	0.1	0.88	87.3
concentration: 21.5 (µM), S9 metabolic activation: without S9, exposure time: 24 hours	0.64	1.08	158
concentration: 26.8 (µM), S9 metabolic activation: with S9, exposure time: 3-4 hours	0.22	0.84	60.3
concentration: 26.8 (µM), S9 metabolic activation: without S9, exposure time: 24 hours	0.8	1.34	86.2
concentration: 33.6 (µM), S9 metabolic activation: with S9, exposure time: 3-4 hours	0.2	0.74	89
concentration: 33.6 (µM), S9 metabolic activation: without S9, exposure time: 24 hours	0.5	1.3	98.3
concentration: 41.9 (µM), S9 metabolic activation: with S9, exposure time: 3-4 hours	0.14	1.24	85.2
concentration: 41.9 (µM), S9 metabolic activation: without S9, exposure time: 24 hours	0.68	0.92	88
concentration: 52.4 (µM), S9 metabolic activation: with S9, exposure time: 3-4 hours	0.18	1.23	71.9
concentration: 52.4 (µM), S9 metabolic activation: without S9, exposure time: 24 hours	0.6	1.34	85.1
concentration: 65.5 (µM), S9 metabolic activation: with S9, exposure time: 3-4 hours	0.22	1.22	59.4
concentration: 65.5 (µM), S9 metabolic activation: without S9, exposure time: 24 hours	1.08	1.4	76.6
concentration: 81.9 (µM), S9 metabolic activation: with S9, exposure time: 3-4 hours	0.35	1.47	56.2
concentration: 81.9 (µM), S9 metabolic activation: without S9, exposure time: 24 hours	1.04	2.08	72.5
concentration: 102 (µM), S9 metabolic activation: with S9, exposure time: 3-4 hours	0.52	1.39	54.4
concentration: 102 (µM), S9 metabolic activation: without S9, exposure time: 24 hours	1.28	1.34	61.5
concentration: 128 (µM), S9 metabolic activation: with S9, exposure time: 3-4 hours	1.05	2.77	56.7
concentration: 128 (µM), S9 metabolic activation: without S9, exposure time: 24 hours	1.54	1.38	49.2
concentration: 160 (µM), S9 metabolic activation: with S9, exposure time: 3-4 hours	1.41	2.66	60.6
concentration: 160 (µM), S9 metabolic activation: without S9, exposure time: 24 hours	1.14	1.44	49.8
concentration: 200 (µM), S9 metabolic activation: with S9, exposure time: 3-4 hours	1.85	2.37	68.6
concentration: 200 (µM), S9 metabolic activation: without S9, exposure time: 24 hours	–	–	30.7

Nc1ccc(Cl)cc1 [4-Chloroaniline]
Conditions	hypodiploid nuclei frequency, CHO-K1 [3] [%]	micronucleus frequency, CHO-K1 [2] [%]	relative survival, CHO-K1 [1]
concentration: 4.48 (µM), S9 metabolic activation: with S9, exposure time: 3-4 hours	0.2	0.8	129
concentration: 4.48 (µM), S9 metabolic activation: without S9, exposure time: 24 hours	0.52	1.26	111
concentration: 5.6 (µM), S9 metabolic activation: with S9, exposure time: 3-4 hours	0.32	1.38	106
concentration: 5.6 (µM), S9 metabolic activation: without S9, exposure time: 24 hours	0.64	1.5	103
concentration: 7 (µM), S9 metabolic activation: with S9, exposure time: 3-4 hours	0.16	1.36	130
concentration: 7 (µM), S9 metabolic activation: without S9, exposure time: 24 hours	0.32	1.9	91.9
concentration: 8.75 (µM), S9 metabolic activation: with S9, exposure time: 3-4 hours	0.22	1.02	106
concentration: 8.75 (µM), S9 metabolic activation: without S9, exposure time: 24 hours	0.46	1.2	106
concentration: 10.9 (µM), S9 metabolic activation: with S9, exposure time: 3-4 hours	0.22	1.68	112
concentration: 10.9 (µM), S9 metabolic activation: without S9, exposure time: 24 hours	0.76	2.4	108
concentration: 13.7 (µM), S9 metabolic activation: with S9, exposure time: 3-4 hours	0.14	0.94	103
concentration: 13.7 (µM), S9 metabolic activation: without S9, exposure time: 24 hours	0.56	1.7	96.2
concentration: 17.1 (µM), S9 metabolic activation: with S9, exposure time: 3-4 hours	0.2	1.52	119
concentration: 17.1 (µM), S9 metabolic activation: without S9, exposure time: 24 hours	0.56	1.72	102
concentration: 21.4 (µM), S9 metabolic activation: with S9, exposure time: 3-4 hours	0.14	1.02	96.3
concentration: 21.4 (µM), S9 metabolic activation: without S9, exposure time: 24 hours	0.64	1.04	104
concentration: 26.7 (µM), S9 metabolic activation: with S9, exposure time: 3-4 hours	0.18	0.72	116
concentration: 26.7 (µM), S9 metabolic activation: without S9, exposure time: 24 hours	0.76	1.78	97.9
concentration: 33.4 (µM), S9 metabolic activation: with S9, exposure time: 3-4 hours	0.28	0.94	102
concentration: 33.4 (µM), S9 metabolic activation: without S9, exposure time: 24 hours	0.88	1.32	93.7
concentration: 41.7 (µM), S9 metabolic activation: with S9, exposure time: 3-4 hours	0.32	1.14	113
concentration: 41.7 (µM), S9 metabolic activation: without S9, exposure time: 24 hours	0.78	1.68	122
concentration: 52.2 (µM), S9 metabolic activation: with S9, exposure time: 3-4 hours	0.34	1.18	108
concentration: 52.2 (µM), S9 metabolic activation: without S9, exposure time: 24 hours	0.74	1.72	96.4
concentration: 65.2 (µM), S9 metabolic activation: with S9, exposure time: 3-4 hours	0.3	1	120
concentration: 65.2 (µM), S9 metabolic activation: without S9, exposure time: 24 hours	0.6	1.46	110
concentration: 81.5 (µM), S9 metabolic activation: with S9, exposure time: 3-4 hours	0.2	0.88	125
concentration: 81.5 (µM), S9 metabolic activation: without S9, exposure time: 24 hours	1.06	2.04	117
concentration: 102 (µM), S9 metabolic activation: with S9, exposure time: 3-4 hours	0.24	1.08	123
concentration: 102 (µM), S9 metabolic activation: without S9, exposure time: 24 hours	1.04	2.28	114
concentration: 127 (µM), S9 metabolic activation: with S9, exposure time: 3-4 hours	0.28	1.2	116
concentration: 127 (µM), S9 metabolic activation: without S9, exposure time: 24 hours	0.86	1.86	88.4
concentration: 159 (µM), S9 metabolic activation: with S9, exposure time: 3-4 hours	0.26	1.32	122
concentration: 159 (µM), S9 metabolic activation: without S9, exposure time: 24 hours	1.28	2.66	94.8
concentration: 199 (µM), S9 metabolic activation: with S9, exposure time: 3-4 hours	0.18	1.14	120
concentration: 199 (µM), S9 metabolic activation: without S9, exposure time: 24 hours	1.12	2.26	92.4
